According to publication PMC4336329 (PLoS ONE, 2015):
Out of some 310,000 compounds screened, about 14,000 (4.5%) showed an effect of 50% or more. The effect is printed as a negative number. The list shows a part of the results.
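Also: peak tail current of the secondary pulse compared with the same well before compound.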

These compounds were tested against human ether-à-go-go-related gene (hERG) potassium channel (human, UniProt Q12809) (assay: primary screen, population patch clamp on CHO cells stably expressing hERG).
Sequence of human ether-à-go-go-related gene (hERG) potassium channel (Q12809 whole entry, looked up): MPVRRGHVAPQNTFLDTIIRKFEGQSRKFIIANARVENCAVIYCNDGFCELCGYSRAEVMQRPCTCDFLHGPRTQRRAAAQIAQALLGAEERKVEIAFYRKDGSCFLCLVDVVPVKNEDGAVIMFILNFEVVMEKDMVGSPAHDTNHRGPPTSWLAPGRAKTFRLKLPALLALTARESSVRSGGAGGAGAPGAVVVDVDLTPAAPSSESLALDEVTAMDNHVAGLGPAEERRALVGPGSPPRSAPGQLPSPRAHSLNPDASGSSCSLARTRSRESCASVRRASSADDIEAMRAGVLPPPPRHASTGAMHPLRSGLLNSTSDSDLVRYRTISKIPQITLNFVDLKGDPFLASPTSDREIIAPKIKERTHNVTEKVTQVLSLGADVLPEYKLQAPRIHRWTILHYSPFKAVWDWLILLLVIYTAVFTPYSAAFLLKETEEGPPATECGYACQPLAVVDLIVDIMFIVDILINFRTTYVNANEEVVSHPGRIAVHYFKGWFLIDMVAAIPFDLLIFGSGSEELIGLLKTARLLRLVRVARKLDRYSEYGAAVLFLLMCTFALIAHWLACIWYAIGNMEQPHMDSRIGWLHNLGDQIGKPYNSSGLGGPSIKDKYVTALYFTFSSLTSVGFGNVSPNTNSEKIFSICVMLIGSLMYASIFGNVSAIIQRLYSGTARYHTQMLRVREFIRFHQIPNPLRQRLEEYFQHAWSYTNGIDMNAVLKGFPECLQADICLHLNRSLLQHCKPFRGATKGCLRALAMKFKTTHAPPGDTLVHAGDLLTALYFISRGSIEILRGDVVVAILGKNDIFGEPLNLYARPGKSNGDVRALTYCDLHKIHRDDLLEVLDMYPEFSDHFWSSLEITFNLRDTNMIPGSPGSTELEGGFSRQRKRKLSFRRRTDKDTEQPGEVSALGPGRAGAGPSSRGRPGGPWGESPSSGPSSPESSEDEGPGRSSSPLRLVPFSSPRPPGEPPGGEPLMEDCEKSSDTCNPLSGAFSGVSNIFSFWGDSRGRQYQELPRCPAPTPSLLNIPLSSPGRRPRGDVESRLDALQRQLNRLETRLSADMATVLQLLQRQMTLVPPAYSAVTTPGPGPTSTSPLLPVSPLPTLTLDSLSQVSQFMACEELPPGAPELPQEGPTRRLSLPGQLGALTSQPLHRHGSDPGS
In the case of CCOc1ccc(C2/C(=C(/O)c3ccc4c(c3)CC(C)O4)C(=O)C(=O)N2CC2CCCO2)cc1 (centres unmarked), the “hERG current change (%, negative = inhibition) at 10uM” value is reported as 13.4%.
With CC(C)C12CN3CC(C(C)C)(CN(C1)C31C(=O)Nc3ccccc31)C2=O (centres unmarked) the “hERG current change (%, negative = inhibition) at 10uM” value was 12.7%.
With Cc1ccc(/C=N/n2c(C)nnc2C)cc1 the “hERG current change (%, negative = inhibition) at 10uM” value was -17.2%.
With Cc1ccc(SCc2ccc(C(=O)N3CCCC3)cc2)cc1 the “hERG current change (%, negative = inhibition) at 10uM” value was -30.1%.
In the case of CCOc1ccccc1NC(=O)N1CCC(c2nc3ccccc3[nH]2)CC1, the “hERG current change (%, negative = inhibition) at 10uM” value is reported as -23.6%.
For CC(=O)N1CCc2c(sc(NC(=O)Cc3ccc(F)cc3)c2C#N)C1, the “hERG current change (%, negative = inhibition) at 10uM” value was 13.6%.
For CCC(CO)Nc1ccc(-c2nn(C)c(=O)c3ccccc23)cc1[N+](=O)[O-] (centres unmarked), the “hERG current change (%, negative = inhibition) at 10uM” value was -9.64%.
For Fc1cccc(NC(=S)NCCN2CCOCC2)c1, the “hERG current change (%, negative = inhibition) at 10uM” value was -1.66%.
For COc1ccc(CCCC(=O)NCc2ccccc2)cc1C, the “hERG current change (%, negative = inhibition) at 10uM” value was -3.49%.
CC1(C)CC(=O)C2=C(C1)N(c1ccc(F)cc1)C(=O)CC2c1cccnc1 (centres unmarked) was tested, and the “hERG current change (%, negative = inhibition) at 10uM” value was 3.95%.
Cc1ccc(C(O)(C(=O)NN(C(=O)c2ccccc2)c2ccccc2)c2ccc(C)cc2)cc1 was tested, and the “hERG current change (%, negative = inhibition) at 10uM” value was 10.5%.
In the case of Cc1ccc(C2=NN(C(=O)CCC(=O)O)C(c3cccc([N+](=O)[O-])c3)C2)cc1 (centres unmarked), the “hERG current change (%, negative = inhibition) at 10uM” value is reported as 11.9%.
In the case of COC(=O)c1ccc(N2C(=O)CC(N(C)Cc3ccccc3)C2=O)cc1 (centres unmarked), the “hERG current change (%, negative = inhibition) at 10uM” value is reported as 10.3%.
Cc1ccccc1S(=O)Cc1ccc(C(=O)NCCN2CCOCC2)o1 (centres unmarked) was tested, and the “hERG current change (%, negative = inhibition) at 10uM” value was 26.2%.
CC(=O)O[C@H]1CC[C@H]2[C@@H]3CCc4cc(O)ccc4[C@H]3CC[C@]12C was tested, and the “hERG current change (%, negative = inhibition) at 10uM” value was -5.79%.
With CCCCN(CCCNC(=O)C1CCN(S(=O)(=O)CC)CC1)c1ccccc1 the “hERG current change (%, negative = inhibition) at 10uM” value was -51.1%.
O=C(N/N=C/c1cccc(OC(=O)c2ccc3c(c2)OCO3)c1)c1cncc(Br)c1 was tested, and the “hERG current change (%, negative = inhibition) at 10uM” value was 22.2%.
With Cn1c(SCC(O)c2ccccc2)nnc1-c1ccc2ccccc2c1 (centres unmarked) the “hERG current change (%, negative = inhibition) at 10uM” value was -21.5%.
With CC1(C)CC(=O)C(N=Nc2ccc(Br)cc2)=C(O)C1 the “hERG current change (%, negative = inhibition) at 10uM” value was 9.43%.
With CCn1c(=O)n(CC)c2cc(S(=O)(=O)N3CCOCC3)ccc21 the “hERG current change (%, negative = inhibition) at 10uM” value was 2.39%.
With O=C(Cn1nc(Br)nc1Br)c1ccccc1 the “hERG current change (%, negative = inhibition) at 10uM” value was 4.41%.
With Cc1ccc(-c2csc(NC(=O)CCCc3cccs3)n2)cc1 the “hERG current change (%, negative = inhibition) at 10uM” value was 5.65%.
With Br.COc1ccccc1Nc1nc(-c2cccc(N3C(=O)c4ccccc4C3=O)c2)cs1 the “hERG current change (%, negative = inhibition) at 10uM” value was 26.4%.
In the case of O=C(C1CCCN(Cc2cccc(Cl)c2)C1)N1CCCCC1.O=C(O)C(=O)O (centres unmarked), the “hERG current change (%, negative = inhibition) at 10uM” value is reported as -10.7%.
O=C(c1ccccc1)N1CCCC(C(=O)N2CCCCCC2)C1 (centres unmarked) was tested, and the “hERG current change (%, negative = inhibition) at 10uM” value was 0.0243%.
In the case of CCC(=O)N1CCc2cc(S(=O)(=O)N3CCCCC3CC)ccc21 (centres unmarked), the “hERG current change (%, negative = inhibition) at 10uM” value is reported as 2.2%.
Cc1cccc2nc(CNC(=O)C3CCC(=O)N(Cc4ccccc4F)C3)cn12 (centres unmarked) was tested, and the “hERG current change (%, negative = inhibition) at 10uM” value was 2.82%.
In the case of O=C1NN(c2cccc(Br)c2)C(=O)/C1=C\c1ccc(N2CCOCC2)cc1, the “hERG current change (%, negative = inhibition) at 10uM” value is reported as 25.7%.
With c1ccc(-c2nnc3n2-c2ccccc2SC3)cc1 the “hERG current change (%, negative = inhibition) at 10uM” value was 8.11%.
For CCc1ccccc1N1C(=O)CC(Sc2nccc(C)n2)C1=O (centres unmarked), the “hERG current change (%, negative = inhibition) at 10uM” value was 8.46%.
For O=C(c1ccc(Br)s1)N1CCN(Cc2ccc3c(c2)OCO3)CC1, the “hERG current change (%, negative = inhibition) at 10uM” value was -36.3%.
In the case of Cc1c(Cl)c(C(=O)N2CCCC2)nn1C, the “hERG current change (%, negative = inhibition) at 10uM” value is reported as 7.73%.
In the case of Cc1ccccc1-n1nnnc1Sc1nnnn1-c1ccccc1, the “hERG current change (%, negative = inhibition) at 10uM” value is reported as -9.48%.
O=C(COC(=O)COc1ccccc1[N+](=O)[O-])NC1CCCCC1 was tested, and the “hERG current change (%, negative = inhibition) at 10uM” value was -23.7%.
In the case of Cc1ccc2nc(-c3cccc(NS(C)(=O)=O)c3)cc(-c3ccccc3)c2c1, the “hERG current change (%, negative = inhibition) at 10uM” value is reported as 5.58%.
CSc1ccc(/C=N/NC(=O)c2ccc(O)cc2)cc1 was tested, and the “hERG current change (%, negative = inhibition) at 10uM” value was -2.63%.
For CCSc1nc2ccc(C)cc2cc1C#N, the “hERG current change (%, negative = inhibition) at 10uM” value was 11.2%.
O=C(Nc1ccc(S(=O)(=O)N2CCCCC2)cc1)c1ccc(F)cc1 was tested, and the “hERG current change (%, negative = inhibition) at 10uM” value was 4.57%.
With CC1=C(c2ccc(C)cc2)[N+](=O)C(C)(C)N1[O-] the “hERG current change (%, negative = inhibition) at 10uM” value was 17.6%.
CS(=O)(=O)N1CCCC(C(=O)Nc2cccc(F)c2)C1 (centres unmarked) was tested, and the “hERG current change (%, negative = inhibition) at 10uM” value was 8.65%.
For O=C(Nc1ccccc1C(=O)O)c1cccc(NS(=O)(=O)c2ccc(Br)cc2)c1, the “hERG current change (%, negative = inhibition) at 10uM” value was 24.4%.
In the case of COc1cccc(OC)c1NC(=O)CN1CCC(NC(=O)c2cccc(F)c2)CC1, the “hERG current change (%, negative = inhibition) at 10uM” value is reported as 1.5%.
COc1cc(CN2CCCC(C(=O)N3CCc4ccccc4C3)C2)cc(OC)c1OC (centres unmarked) was tested, and the “hERG current change (%, negative = inhibition) at 10uM” value was -62%.
For Cc1ccc(S(=O)(=O)NCc2csc(C)n2)cc1, the “hERG current change (%, negative = inhibition) at 10uM” value was 14.8%.
